Assay results: publication PMC11349758
These are yes or no findings as the source states them, for the method shown. In cells and extracts the contact can be indirect. Some binding calls cover weakened binding; strength is not graded here.

Sequences of proteins named here, by UniProt entry; tags and fusion partners are left off. A change or cut given only in a name is not applied to a line headed by its entry.
UniProt P42230: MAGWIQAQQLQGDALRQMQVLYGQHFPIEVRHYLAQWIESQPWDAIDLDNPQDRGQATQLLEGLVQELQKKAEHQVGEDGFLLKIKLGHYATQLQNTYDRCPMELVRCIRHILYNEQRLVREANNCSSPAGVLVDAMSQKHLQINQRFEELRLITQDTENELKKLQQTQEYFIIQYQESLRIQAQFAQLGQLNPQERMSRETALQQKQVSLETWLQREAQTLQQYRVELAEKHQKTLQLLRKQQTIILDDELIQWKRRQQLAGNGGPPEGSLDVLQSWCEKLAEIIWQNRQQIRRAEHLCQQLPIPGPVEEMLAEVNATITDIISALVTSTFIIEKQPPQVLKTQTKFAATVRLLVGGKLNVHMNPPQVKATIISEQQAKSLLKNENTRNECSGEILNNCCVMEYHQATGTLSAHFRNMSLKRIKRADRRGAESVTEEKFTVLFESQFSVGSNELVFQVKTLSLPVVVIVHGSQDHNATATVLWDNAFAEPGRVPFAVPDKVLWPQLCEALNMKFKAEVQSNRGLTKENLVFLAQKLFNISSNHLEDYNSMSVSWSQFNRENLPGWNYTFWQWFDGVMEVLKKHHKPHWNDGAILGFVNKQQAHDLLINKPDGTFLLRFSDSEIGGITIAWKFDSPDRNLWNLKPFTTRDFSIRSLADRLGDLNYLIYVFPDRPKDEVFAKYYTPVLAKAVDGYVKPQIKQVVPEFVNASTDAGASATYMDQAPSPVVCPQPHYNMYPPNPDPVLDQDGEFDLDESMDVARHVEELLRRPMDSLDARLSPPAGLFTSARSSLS
UniProt P42232: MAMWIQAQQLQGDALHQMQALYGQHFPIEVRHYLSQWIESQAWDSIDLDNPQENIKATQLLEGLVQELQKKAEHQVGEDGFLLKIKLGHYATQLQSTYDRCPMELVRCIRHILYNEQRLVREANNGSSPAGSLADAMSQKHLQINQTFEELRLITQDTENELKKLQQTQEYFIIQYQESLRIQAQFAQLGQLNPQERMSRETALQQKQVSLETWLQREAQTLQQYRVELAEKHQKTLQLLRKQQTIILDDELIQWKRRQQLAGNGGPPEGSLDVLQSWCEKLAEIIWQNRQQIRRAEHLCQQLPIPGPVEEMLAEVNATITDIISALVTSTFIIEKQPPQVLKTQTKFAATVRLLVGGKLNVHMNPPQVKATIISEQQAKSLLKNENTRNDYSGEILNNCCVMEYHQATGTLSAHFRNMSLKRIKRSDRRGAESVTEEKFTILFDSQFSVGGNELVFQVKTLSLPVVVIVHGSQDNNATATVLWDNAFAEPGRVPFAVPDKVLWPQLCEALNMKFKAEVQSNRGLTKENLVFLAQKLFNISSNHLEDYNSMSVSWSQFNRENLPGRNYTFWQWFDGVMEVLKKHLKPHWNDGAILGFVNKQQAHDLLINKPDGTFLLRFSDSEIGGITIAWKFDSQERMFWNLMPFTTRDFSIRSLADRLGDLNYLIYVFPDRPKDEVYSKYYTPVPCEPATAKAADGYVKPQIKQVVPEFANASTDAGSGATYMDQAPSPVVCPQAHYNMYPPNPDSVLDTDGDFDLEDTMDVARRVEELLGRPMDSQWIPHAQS

Key:
[1] = biological target: tyrosine phosphorylated STAT5A (pYSTAT5A) (mouse (endogenous in mouse splenic T cells)) (UniProt P42230); experiment: co-IP; lysates of preactivated mouse T cells stimulated with 500 IU/ml IL-2 for 20 min; high salt NP40 lysis buffer (10 mM Tris pH 7.5, 0.3 M NaCl, 0.5% NP40); IP with rabbit anti-STAT5A antiserum (R1216) and protein A/G magnetic beads at 4 °C overnight; blot with anti-STAT5B
[2] = biological target: STAT5A (cells not stimulated with IL-2) (mouse (endogenous in mouse splenic T cells)) (UniProt P42230); experiment: co-IP; lysates of preactivated mouse T cells cultured without IL-2 (not stimulated); high salt NP40 lysis buffer (10 mM Tris pH 7.5, 0.3 M NaCl, 0.5% NP40); IP with rabbit anti-STAT5A antiserum (R1216) and protein A/G magnetic beads at 4 °C overnight; blot with anti-STAT5B
[3] = biological target: STAT5A^Y694F (mouse (endogenous in mouse splenic T cells)) (UniProt P42230); experiment: co-IP; lysates of preactivated mouse T cells stimulated with 500 IU/ml IL-2 for 20 min; high salt NP40 lysis buffer (10 mM Tris pH 7.5, 0.3 M NaCl, 0.5% NP40); IP with rabbit anti-STAT5A antiserum (R1216) and protein A/G magnetic beads at 4 °C overnight; blot with anti-STAT5B
[4] = biological target: STAT5A^Y694F (mouse (endogenous in mouse splenic T cells)) (UniProt P42230); experiment: co-IP; lysates of preactivated mouse T cells cultured without IL-2 (not stimulated); high salt NP40 lysis buffer (10 mM Tris pH 7.5, 0.3 M NaCl, 0.5% NP40); IP with rabbit anti-STAT5A antiserum (R1216) and protein A/G magnetic beads at 4 °C overnight; blot with anti-STAT5B

Row | binding [1] | binding [2] | binding [3] | binding [4] | Substance
1 | no binding | no binding |  |  | STAT5B^Y699F (from UniProt P42232 1-786)
2 | binds |  | no binding |  | tyrosine phosphorylated STAT5B (pYSTAT5B) (from UniProt P42232 1-786)
3 |  |  |  | no binding | STAT5B (cells not stimulated with IL-2) (from UniProt P42232 1-786)
